{"source": "PubChem BioAssay AID686970", "about": "(National Center for Advancing Translational Sciences (NCATS), 2013)", "note": "Out of some 360,000 compounds screened, about 6,000 (1.7%) were called active. This list was built around the results that the source calls inconclusive (neither active nor inactive); the mix of calls is not that of the screen. Calls come from the whole dose curve; as a rule, active = well fitted cell-killing curve with a large enough effect; inconclusive = small, poorly fitted or top-dose-only effect, or effect the other way; inactive = flat fitted curve, though single readings scatter. Potencies of inconclusive entries are left out as doubtful fits. Potency is the fitted concentration of half-maximal effect; tags give direction and shape of the fitted curve."}
{"assay": "qHTS for induction of synthetic lethality in tumor cells producing 2HG: qHTS for the HT-1080-NT fibrosarcoma cell line;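 note: NT is the 2HG producing partner of a matched IDH1 knockdown line; nearly all actives have a fitted effect of over 55% in size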;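 for activity, negative = less viability: 0% = DMSO-treated cells and -100% = media-only wells without cells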", "settings": "HT-1080-NT fibrosarcoma viability, CellTiter-Glo ATP luminescence, 48 h; activity, negative = less viability: at 46.1 µM (top of the series) unless noted", "outline": "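Viability by CellTiter-Glo luminescence after 48 h compound exposure at 37C of HT-1080-NT cells (750/well, RPMI, 5% FBS). % activity scaled between DMSO wells and medium-only wells, then curve-fitted and categorized by curve class.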"}
{"smiles": "Cc1ccsc1C(=O)N/N=C/c1ccc2c(c1)OCO2", "Potency": "inconclusive [cytotoxic, partial curve]"}
{"smiles": "CC(C)C(C(=O)NC1=NCCS1)c1ccc(Cl)cc1", "note": "(centres undefined)", "Potency": "inconclusive [cytotoxic, single point]"}
{"smiles": "COc1ccc(C2CC(c3ccc(OC)c(OC)c3)=NN2C(=O)c2ccccc2)cc1", "note": "(centres undefined)", "Potency": "inactive"}
{"smiles": "COc1ccc(NC(=O)C2(C)Cc3c(-c4cccc(C(N)=O)c4)ccnc3O2)cc1OC", "note": "(centres undefined)", "Potency": "inactive"}
{"smiles": "COC(=O)[C@H](C)N(Cc1ccc(Cl)c(Cl)c1)S(=O)(=O)CCNC1CCCC1", "Potency": "inactive"}
{"smiles": "O=C(Nc1ccccc1)NN(C(=O)CCl)c1ccccc1", "Potency": "active: 7.31 µM"}
{"smiles": "OCCN1CCN(CCCN2c3ccccc3Sc3ccc(Cl)cc32)CC1", "Potency": "inconclusive [cytotoxic, single point]"}
{"smiles": "Cc1cccc(C)c1NC(=O)COC(=O)c1ccc2[nH]c3c(c2c1)CCCC3", "Potency": "inconclusive [cytotoxic, single point]"}
{"smiles": "O=C(O)CC1NC(=S)N(c2ccccc2)C1=O", "note": "(centres undefined)", "Potency": "inconclusive [cytotoxic, single point]"}
{"smiles": "C=CCOc1c(Cl)cc(CNCCCN2CCOCC2)cc1OC", "Potency": "inconclusive [cytotoxic, partial curve]"}
{"smiles": "Cc1ccc(CCNC(=O)C2CCN(C(=O)c3sccc3-n3cccc3)CC2)cc1", "Potency": "inactive"}
{"smiles": "CS(=O)(=O)Nc1cccc(NC(=O)C2Cc3c(-c4cccc(C(N)=O)c4)ccnc3O2)c1", "note": "(centres undefined)", "Potency": "inactive"}
{"smiles": "NC(=O)c1ccc(NC(=O)COC(=O)/C=C/c2ccc3c(c2)OCO3)cc1", "Potency": "inactive"}
{"smiles": "O=C(NCc1ccco1)c1cc2ccc(O)cc2oc1=O", "Potency": "inconclusive [cytotoxic, partial curve]"}
{"smiles": "CCC(C)(C)n1nnnc1C(c1ccccc1)N1CCN(Cc2ccccc2)CC1", "note": "(centres undefined)", "Potency": "inactive"}
{"smiles": "O=C(CC1SC(=NCCc2ccccc2)N(/N=C/c2cccs2)C1=O)Nc1ccc(Cl)cc1", "note": "(centres undefined)", "Potency": "inconclusive [cytotoxic, single point]"}
{"smiles": "Cc1ccnc(Nc2nc(-c3sc(C)nc3C)cs2)c1", "Potency": "inconclusive [cytotoxic, partial curve, poor fit]"}
{"smiles": "O=C(OCC(=O)N1CCCCC1)c1ccc2c(c1)C(=O)N(Cc1ccco1)C2=O", "activity, negative = less viability": "inactive: 4.24% [at 9.24 µM]"}
{"smiles": "CCCCn1c(=O)c2c(O)cc(=O)oc2c2ccccc21", "Potency": "inactive"}
{"smiles": "Cc1cccc(OCCC(=O)OCC(=O)N2c3ccccc3NC(=O)C2(C)C)c1", "Potency": "inactive"}
{"smiles": "CC(=O)c1ccc(OCCCC(=O)NCc2nnc3ccccn23)cc1", "Potency": "inactive"}
{"smiles": "Cc1cc(NC(=O)c2cc(-c3ccncc3)nc3c(C)cccc23)no1", "Potency": "active: 5.8 µM"}
{"smiles": "O=C(c1cc2ccccc2[nH]1)N1CCOCC1", "Potency": "inactive"}
{"smiles": "O=C(NCCCn1ccnc1)/C(=C\\c1cccnc1)NC(=O)c1ccco1", "Potency": "inconclusive [rising, single point]"}
{"smiles": "O=C(COC(=O)c1cc(=O)c2ccccc2o1)NCc1ccccc1", "Potency": "inconclusive [rising, partial curve, poor fit]"}
{"smiles": "COc1ccc(CC(=O)NCc2ccc3c(c2)cc(C)n3C)cc1", "Potency": "inactive"}
{"smiles": "OC(CNc1ncnc2sccc12)c1ccccc1", "note": "(centres undefined)", "Potency": "inconclusive [cytotoxic, full curve, poor fit]"}
{"smiles": "O=C(NCCS(=O)(=O)N1CCN(c2ccccc2F)CC1)c1cc(=O)c2ccccc2o1", "Potency": "inactive"}
{"smiles": "Cc1cccc(C)c1Nc1nnc(SCc2nc3ccccc3c(=O)[nH]2)s1", "Potency": "inconclusive [cytotoxic, single point]"}
{"smiles": "O=C1CCCC2=C1C(c1ccccc1)NC(=S)N2", "note": "(centres undefined)", "Potency": "inconclusive [cytotoxic, single point]"}
{"smiles": "CCOC(=O)c1cc(S(=O)(=O)Nc2ccc(F)cc2F)cn1C", "Potency": "inactive"}
{"smiles": "Cc1cc(N2CCN(C)CC2)nc2ccc(NC(=O)CCC(=O)N3CCN(c4ccc([N+](=O)[O-])cc4)CC3)cc12", "Potency": "active: 20.6 µM"}
{"smiles": "O=C(NC1CCCC1)C(c1ccccc1)n1c(-c2cccc3ccccc23)nc2ccccc21", "note": "(centres undefined)", "Potency": "inconclusive [cytotoxic, single point]"}
{"smiles": "COc1ccc(NC(=O)CS(=O)(=O)c2cccc(Cl)c2)cc1", "Potency": "inactive"}
{"smiles": "CC1CCN(CCCNC(=O)c2ccc3c(=O)n(Cc4ccc(Cl)cc4)c(=S)[nH]c3c2)CC1", "Potency": "inactive"}
{"smiles": "Cc1nc(-c2ccc(NC(=O)c3ccco3)cc2)cs1", "Potency": "inconclusive [cytotoxic, single point]"}
{"smiles": "C/C(=N\\NC(=O)c1ccc(NS(=O)(=O)c2cccs2)cc1)c1ccc(O)cc1O", "Potency": "inconclusive [cytotoxic, partial curve, poor fit]"}
{"smiles": "CCn1c2ccccc2c2cc(NC(=O)C(C)OC(=O)c3ccc(NC(=O)CC#N)cc3)ccc21", "note": "(centres undefined)", "Potency": "inconclusive [cytotoxic, partial curve]"}
{"smiles": "C(#Cc1ccccc1)C[N+]1(CC#Cc2cccc3ccccc23)CCCC1", "Potency": "inconclusive [cytotoxic, single point]"}
{"smiles": "CC(C)(C)c1ccc(OCc2ccc(C(=O)N/N=C3\\CC4CC=CC34)cc2)cc1", "note": "(centres undefined)", "Potency": "inconclusive [cytotoxic, partial curve]"}
{"smiles": "S=c1ncc2[nH]c(=S)[nH]c2[nH]1", "Potency": "inactive"}
{"smiles": "COc1ccc(C(=O)Nc2ccc(Cn3ccnc3)cc2)cc1OC", "Potency": "inconclusive [cytotoxic, partial curve]"}
{"smiles": "COc1cc(Cn2c3ccc(NC(=O)NCc4ccc(F)cc4)cc3c(=O)n2C)ccc1F", "Potency": "inconclusive [cytotoxic, full curve]"}
{"smiles": "COc1ccc(S(=O)(=O)N2CCCOC2CNC(=O)C(=O)NCCc2ccco2)cc1C", "note": "(centres undefined)", "Potency": "active: 16.4 µM"}
{"smiles": "CCCOc1ccc(-c2c(C(=O)N/N=C/c3ccncc3)nnn2-c2nonc2N)cc1", "Potency": "inconclusive [cytotoxic, single point]"}
{"smiles": "Fc1ccccc1Nc1nc2ccccc2o1", "Potency": "inconclusive [cytotoxic, partial curve]"}
{"smiles": "CC(=O)Nc1cccc(Oc2cc(C#N)c(C#N)cc2N2CCCCCC2)c1", "Potency": "inconclusive [cytotoxic, single point]"}
{"smiles": "Cc1ccc(C)c(N2CCN(c3nnnn3-c3ccccc3)CC2)c1", "Potency": "inconclusive [cytotoxic, single point]"}
{"smiles": "Cc1cc(/C=C(\\C#N)C(=O)NCc2cccs2)c(C)n1-c1ccccc1F", "Potency": "inconclusive [cytotoxic, single point]"}
{"smiles": "Cc1cc(Cl)ccc1NC(=S)NCCc1ccc(Cl)cc1", "Potency": "inconclusive [cytotoxic, single point]"}
{"smiles": "C1=C(CCNc2nnnn2-c2ccccc2)CCCC1", "Potency": "inactive"}
{"smiles": "CCOC(=O)[C@]12CCC=C1N(Cc1ccc(Cl)cc1Cl)C(=O)[C@H](CC(=O)NCc1cccs1)C2", "Potency": "inconclusive [cytotoxic, single point]"}
{"smiles": "CC1CC(C)CN(C(=O)c2ccc3c(c2NCCO)C(=O)c2ccccc2C3=O)C1", "note": "(centres undefined)", "Potency": "inconclusive [cytotoxic, partial curve]"}
{"smiles": "CC1(Cc2cc(Cl)ccc2C(F)(F)F)C(=O)Nc2ccc(S(=O)(=O)NC3CCCCC3)cc21", "note": "(centres undefined)", "Potency": "inconclusive [cytotoxic, single point]"}
{"smiles": "N#C/C(=C/c1cccc(O)c1)C(=O)NCc1ccc(Cl)cc1", "Potency": "inconclusive [cytotoxic, single point]"}
{"smiles": "Cc1cc(-c2ccc(C)c(S(=O)(=O)NCCC(C)N3CCCCCC3)c2)on1", "note": "(centres undefined)", "Potency": "inactive"}
{"smiles": "COc1ccccc1CN(C)C(=O)c1cccc(S(=O)(=O)N2CCN(Cc3ccccc3)CC2)c1", "Potency": "inactive"}
{"smiles": "C(=NN=C(NN=Cc1cccs1)NN=Cc1cccs1)c1cccs1", "Potency": "inconclusive [cytotoxic, single point]"}
{"smiles": "Cc1ccc(S(=O)(=O)N2CCN(Cc3ccccc3C(F)(F)F)CC2)cc1", "Potency": "inactive"}
{"smiles": "CCc1ccc(S(=O)(=O)/N=C2\\C=C(Nc3ccc(O)cc3)C(=O)c3ccccc32)cc1", "Potency": "active: 2.91 µM"}
{"smiles": "C(=N\\NCc1ccccc1)/c1ccc2nccnc2c1", "Potency": "inactive"}
{"smiles": "Cn1c(=O)[nH]c(=O)c2[nH]c(CN3CCN(Cc4ccccc4)CC3)nc21", "Potency": "inactive"}
{"smiles": "Cn1ncc([N+](=O)[O-])c1C(=O)Nc1ccn(Cc2ccccc2F)n1", "Potency": "inconclusive [cytotoxic, single point]"}
{"smiles": "NC(=S)N/N=C1/CCSc2ccc3ccccc3c21", "Potency": "active: 25.9 µM"}
{"smiles": "Cc1nc(-c2ccc(C(=O)Nc3cccc(F)c3)cc2)cs1", "Potency": "inconclusive [cytotoxic, partial curve]"}
{"smiles": "COc1ccc2oc(=O)c(C(=O)Nc3cccc(C)c3)cc2c1", "Potency": "inconclusive [rising, single point]"}
{"smiles": "S=C(Nc1cccc(Cl)c1)Nc1ccccc1Oc1ccccc1", "Potency": "inconclusive [cytotoxic, single point]"}
{"smiles": "COc1ccc(CNC(=O)CN(Cc2ccccc2F)C(=O)c2csnn2)cc1", "Potency": "inactive"}
{"smiles": "Cn1c(C(=O)N2CCN(c3ccc(Cl)cc3)CC2)cc2c(=O)[nH]c3ccccc3c21", "Potency": "inactive"}
{"smiles": "COc1cccc(C(Nc2ccccc2)c2ccc3ccc(C)nc3c2O)c1", "note": "(centres undefined)", "Potency": "active: 10.3 µM"}
{"smiles": "Cc1nc(N)nc(Nc2ccc(C#N)cc2)c1Br", "Potency": "inactive"}
{"smiles": "CC1CN(c2ccc([N+](=O)[O-])cc2C#N)CC(C)O1", "note": "(centres undefined)", "Potency": "inactive"}
{"smiles": "CCN1C(=O)/C(=C/c2cc(C)n(C)c2C)SC1=Nc1ccc(OC)cc1", "Potency": "inconclusive [cytotoxic, partial curve, poor fit]"}
{"smiles": "CN(C)c1nc(N/N=C/c2ccccc2O)nc(Nc2ccc(F)cc2)n1", "Potency": "inconclusive [cytotoxic, full curve]"}
